Measurements as given in the supplement of paper PMC8821664.
Counter-ions that a name gives are not always drawn. The list shows a part of the results. Single values are uncertain, as repeats are few or missing.

System: Beas-2B AQP5-HiBiT reporter cells
Assay: AQP5-HiBiT luminescence relative to vehicle (ratio to vehicle); higher = higher AQP5-HiBiT protein abundance
Conditions: 10 µM; 18 h
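Further: monoclonal Beas-2B line stably carrying CMV promoter-driven AQP5-HiBiT, 5,000 cells per well in 384-well plates, lytic HiBiT plus LgBiT NanoLuc luminescence, FDA-approved drug library screen.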

Structure (SMILES)	AQP5-HiBiT luminescence
NNc1nncc2ccccc12 [Hydralazine hydrochloride]	0.925
C[N+]1(CCCCC[N+]2(C)CCCC2)CCCC1 [Pentolinium Tartrate]	0.641
CCCCC(CC)COC(=O)C(C#N)=C(c1ccccc1)c1ccccc1 (stereo not given) [Octocrilene]	0.7
C[C@H]1O[C@@H](O[C@H]2[C@@H](O)C[C@H](O[C@H]3[C@@H](O)C[C@H](O[C@H]4CC[C@@]5(C)[C@H](CC[C@@H]6[C@@H]5CC[C@]5(C)[C@@H](C7=CC(=O)OC7)CC[C@]65O)C4)O[C@@H]3C)O[C@@H]2C)C[C@H](O)[C@@H]1O [Digitoxin]	2.16
O=C(O)Cc1ccccc1Nc1c(Cl)cccc1Cl [Diclofenac sodium]	0.869
CC1(C)C[C@@H]1C(=O)N/C(=C\CCCCSC[C@H](N)C(=O)O)C(=O)O [Cilastatin]	0.63
Cc1ccccc1N1C(=O)c2cc(S(N)(=O)=O)c(Cl)cc2NC1C (stereo not given) [Metolazone]	1.3
Nc1nc(=O)c2nc(CNc3ccc(C(=O)N[C@@H](CCC(=O)O)C(=O)O)cc3)cnc2[nH]1 [Folic acid]	0.726
CC[C@H](C)C[C@H](C)CCCCCCCCC(=O)N[C@H]1C[C@@H](O)[C@@H](NCCN)NC(=O)[C@@H]2[C@@H](O)CCN2C(=O)[C@H]([C@H](O)CCN)NC(=O)[C@H]([C@H](O)[C@@H](O)c2ccc(O)cc2)NC(=O)[C@@H]2C[C@@H](O)CN2C(=O)[C@H]([C@@H](C)O)NC1=O [Cancidas]	0.805
Cc1cccc(C)c1OCC(C)N (stereo not given) [Mexiletine hydrochloride]	0.684
COc1ccc(C[C@@H]2c3cc(OC)c(OC)cc3CC[N@+]2(C)CCC(=O)OCCCCCOC(=O)CC[N@@+]2(C)CCc3cc(OC)c(OC)cc3[C@H]2Cc2ccc(OC)c(OC)c2)cc1OC [Cisatracurium besylate]	0.876
CCN(CC)CCNC(=O)c1c(C)[nH]c(/C=C2\C(=O)Nc3ccc(F)cc32)c1C [Sunitinib]	0.934
CCN1CC(CCN2CCOCC2)C(c2ccccc2)(c2ccccc2)C1=O (stereo not given) [Doxapram hydrochloride]	1.17
CS(=O)(=O)CCNCc1ccc(-c2ccc3ncnc(Nc4ccc(OCc5cccc(F)c5)c(Cl)c4)c3c2)o1 [Lapatinib ditosylate]	1.03
O=C[C@H](O)[C@@H](O)[C@H](O)CO (racemic) [DL-Xylose]	0.769
C[C@H](Cc1cc2c(c(C(N)=O)c1)N(CCCO)CC2)NCCOc1ccccc1OCC(F)(F)F [Silodosin]	1.54
O=C1c2ccccc2C(=O)C1c1ccccc1 [Phenylindione]	0.939
CC(C)/N=c1\cc2n(-c3ccc(Cl)cc3)c3ccccc3nc-2cc1Nc1ccc(Cl)cc1 [Clofazimine]	0.58
CSc1ccc2c(c1)N(CCC1CCCCN1C)c1ccccc1S2 (stereo not given) [Thioridazine hydrochloride]	1.45
N#C/C(=C1/SC[C@@H](c2ccc(Cl)cc2Cl)S1)n1ccnc1 [Luliconazole]	0.698

Structure (SMILES)	AQP5-HiBiT luminescence
Cn1ccnc1S [Methimazole]	1.04
CC1(C)S[C@@H]2[C@H](NC(=O)C(C(=O)O)c3ccccc3)C(=O)N2[C@H]1C(=O)O (stereo not given in full) [Carbenicillin disodium]	1.09
O=C(O)C(=O)O.[NH-][C@@H]1CCCC[C@H]1[NH-].[Pt+2] [Oxaliplatin]	0.677
Cc1ccccc1C(OCCN(C)C)c1ccccc1 (stereo not given) [Orphenadrine hydrochloride]	0.886
O=C(CCCCCCC(=O)Nc1ccccc1)NO [Vorinostat (SAHA, MK0683)]	1.19
CC(=O)NS(=O)(=O)c1ccc(N)cc1 [Sulfacetamide sodium]	0.888
Nc1nc(F)nc2c1ncn2[C@@H]1O[C@H](CO)[C@@H](O)[C@@H]1O [Fludarabine]	1.04
CN(C)CCC=C1c2ccccc2CCc2ccccc21 [Amitriptyline hydrochloride]	1.33
CN(C)CCCN1c2ccccc2Sc2ccccc21 [Promazine hydrochloride]	1.09
O=C(c1ccccc1)c1ccc2n1CCC2C(=O)O (stereo not given) [Toradol]	0.994
NS(=O)(=O)Cc1noc2ccccc12 [Zonisamide]	0.986
CCCNC(C)C(=O)Nc1ccccc1C (stereo not given) [Propitocaine hydrochloride]	1.05
Fc1ccc([C@@H]2CCNC[C@H]2COc2ccc3c(c2)OCO3)cc1 [Paroxetine hydrochloride]	1.03
CCN[C@H]1C[C@H](C)S(=O)(=O)c2sc(S(N)(=O)=O)cc21 [Dorzolamide hydrochloride]	1.03
CC(=O)O[C@H]1C[C@@H]2CC[C@@H]3[C@H](CC[C@@]4(C)[C@H]3C[C@H]([N+]3(C)CCCCC3)[C@@H]4OC(C)=O)[C@@]2(C)C[C@@H]1N1CCCCC1 [Vecuronium bromide]	1.07
CCOc1nc2cccc(C(=O)OC(C)OC(=O)OC3CCCCC3)c2n1Cc1ccc(-c2ccccc2-c2nn[nH]n2)cc1 (stereo not given) [Candesartan Cilexetil]	10.6
CCCCC1C(=O)N(c2ccccc2)N(c2ccccc2)C1=O [Phenylbutazone]	0.934
CC/C(=C(/CC)c1ccc(O)cc1)c1ccc(O)cc1 [Diethylstilbestrol]	1.35
CCCSc1ccc2[nH]c(NC(=O)OC)nc2c1 [Albendazole]	2.66
Clc1ccc(COC(Cn2ccnc2)c2ccc(Cl)cc2Cl)cc1 (stereo not given) [Econazole]	0.695
